Measured values from the supplement of paper PMC6089552.
Among all 3,200 compounds or so, about 300 (9.4%) showed activity. The entries are a selection whose mix differs from that of the whole data set.

Tested on: A673/TR/shEF
Experiment: cell viability (LOESS-normalised, relative to median of negative controls) (log2 ratio); higher = more viable cells (less compound effect), active = hit call of the paper (over 3 MAD below the median)
Conditions: treatment time: 72 h
In short: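 For three days, A673/TR/shEF Ewing sarcoma cells in 384-well plates (1,500 per well) were treated with library compounds at two or more concentrations or with DMSO controls, after doxycycline had been added or withheld 24 h beforehand to induce EWS-FLI1 shRNA knockdown. Viability was read by CellTiter-Glo luminescence on an Envision reader. The data were LOESS-corrected per plate, divided by the median of negative controls and log2-transformed.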

[1] = 0.25 µM, library screen: screen1, EWS-FLI1 expression: high (no doxycycline)
[2] = 0.25 µM, library screen: screen1, EWS-FLI1 expression: low (doxycycline-induced shRNA knockdown)
[3] = 2.5 µM, library screen: screen1, EWS-FLI1 expression: high (no doxycycline)
[4] = 2.5 µM, library screen: screen1, EWS-FLI1 expression: low (doxycycline-induced shRNA knockdown)
[5] = 0.25 µM, library screen: screen2, EWS-FLI1 expression: high (no doxycycline)
[6] = 0.25 µM, library screen: screen2, EWS-FLI1 expression: low (doxycycline-induced shRNA knockdown)
[7] = 2.5 µM, library screen: screen2, EWS-FLI1 expression: high (no doxycycline)
[8] = 2.5 µM, library screen: screen2, EWS-FLI1 expression: low (doxycycline-induced shRNA knockdown)
[9] = 0.103 µM, library screen: screen3, EWS-FLI1 expression: high (no doxycycline)
[10] = 0.103 µM, library screen: screen3, EWS-FLI1 expression: low (doxycycline-induced shRNA knockdown)
[11] = 0.308 µM, library screen: screen3, EWS-FLI1 expression: high (no doxycycline)
[12] = 0.308 µM, library screen: screen3, EWS-FLI1 expression: low (doxycycline-induced shRNA knockdown)
[13] = 0.926 µM, library screen: screen3, EWS-FLI1 expression: high (no doxycycline)
[14] = 0.926 µM, library screen: screen3, EWS-FLI1 expression: low (doxycycline-induced shRNA knockdown)
[15] = 2.8 µM, library screen: screen3, EWS-FLI1 expression: high (no doxycycline)
[16] = 2.8 µM, library screen: screen3, EWS-FLI1 expression: low (doxycycline-induced shRNA knockdown)
[17] = 8.3 µM, library screen: screen3, EWS-FLI1 expression: high (no doxycycline)
[18] = 8.3 µM, library screen: screen3, EWS-FLI1 expression: low (doxycycline-induced shRNA knockdown)
[19] = 25 µM, library screen: screen3, EWS-FLI1 expression: high (no doxycycline)
[20] = 25 µM, library screen: screen3, EWS-FLI1 expression: low (doxycycline-induced shRNA knockdown)
[21] = 0.025 µM, library screen: screen2, EWS-FLI1 expression: high (no doxycycline)
[22] = 0.025 µM, library screen: screen2, EWS-FLI1 expression: low (doxycycline-induced shRNA knockdown)
[23] = 25 µM, library screen: screen2, EWS-FLI1 expression: high (no doxycycline)
[24] = 25 µM, library screen: screen2, EWS-FLI1 expression: low (doxycycline-induced shRNA knockdown)
[25] = 25 µM, library screen: screen1, EWS-FLI1 expression: high (no doxycycline)

Measured: cell viability (log2)

COc1cc(C)c2c(=O)cc(-c3ccccc3)oc2c1
inactive: [1] 0.164 | [2] 0.157 | [3] 0.235 | [4] 0.304

CC(C)(Oc1ccc(C2CC2(Cl)Cl)cc1)C(=O)O (centres undefined)
inactive: [5] 0.159 | [6] 0.148 | [7] 0.0707 | [8] 0.11

CC(=O)NCCc1ccc(O)c(O)c1
inactive: [5] -0.0226 | [6] 0.0196 | [7] 0.0668 | [8] 0.105

O=P(O)(O)C(O)(Cc1cccnc1)P(=O)(O)O
inactive: [9] 0.00356 | [10] 0.0332 | [11] -0.0598 | [12] 0.0284 | [13] -0.00429 | [14] -0.0275 | [15] -0.0278 | [16] 0.0358 | [17] 0.00755 | [18] 0.0577 | [19] 0.0619 | [20] 0.00618

N[C@@H](Cc1ccc(F)cc1)C(=O)O
inactive: [5] 0.199 | [6] 0.131 | [7] 0.111 | [8] 0.0302

Nc1nccc2c1ncn2[C@@H]1O[C@H](CO)[C@@H](O)[C@H]1O
inactive: [5] 0.199 | [6] 0.0735 | [7] 0.0748 | [8] 0.125

Nc1ccc(N=Nc2ccccc2)c(N)n1
inactive: [1] 0.0928 | [2] 0.128 | [3] 0.205 | [4] 0.206

CC(C)=CCc1c(O)cc(C)oc1=O
inactive: [1] 0.0912 | [2] -0.0147 | [3] 0.109 | [4] -0.0401

O=C(O)c1cc(O)c(O)c(O)c1
inactive: [1] 0.0108 | [2] 0.0712 | [3] 0.053 | [4] 0.123

CCN(CC)C(=O)N1CCN(C)CC1
inactive: [21] 0.0545 | [22] 0.0535 | [1] 0.0595 | [2] 0.134 | [5] -0.00062 | [6] 0.14 | [3] 0.0995 | [4] 0.2 | [7] 0.119 | [8] 0.0298 | [23] 0.126 | [24] 0.125

Cn1cnc2c(NC3CCCC3)ncnc21
inactive: [5] 0.163 | [6] 0.111 | [7] 0.133 | [8] 0.108

Oc1cc(O)c2c(c1)O[C@H](c1cc(O)c(O)c(O)c1)[C@H](O)[C@H]2c1c(O)cc(O)c2c1O[C@H](c1cc(O)c(O)c(O)c1)[C@H](O)[C@H]2c1c(O)cc(O)c2c1O[C@H](c1cc(O)c(O)c(O)c1)[C@H](O)C2
inactive: [1] -0.0224 | [2] 0.066 | [3] 0.107 | [4] 0.0716

CCN(CCCc1ccccc1)CCCc1ccccc1
inactive: [1] 0.0709 | [2] 0.129 | [3] 0.11 | [4] 0.151

CCOC(=O)c1c(C)cc(O)c(C)c1O
inactive: [1] 0.117 | [2] 0.0649 | [3] 0.0865 | [4] 0.119

Clc1ccc(COC(Cn2ccnc2)c2ccc(Cl)cc2Cl)cc1 (centres undefined)
active: [19] -0.429

NC(=O)NO
inactive: [21] 0.198 | [22] 0.0401 | [9] 0.0434 | [10] -0.011 | [1] -0.0023 | [2] -0.0249 | [5] 0.143 | [6] 0.0451 | [11] 0.0507 | [12] 0.067 | [13] 0.0995 | [14] 0.0841 | [3] 0.136 | [4] 0.0792 | [7] 0.11 | [8] 0.0912 | [15] 0.0898 | [16] 0.0212 | [17] 0.00032 | [18] 0.0269 | [23] 0.147 | [24] 0.0856 | [19] 0.147 | [20] 0.101

Clc1ccccc1C(c1ccccc1)(c1ccccc1)n1ccnc1
inactive: [9] 0.121 | [10] 0.0866 | [1] 0.14 | [2] 0.136 | [5] 0.0798 | [6] 0.0728 | [11] 0.0878 | [12] 0.0769 | [13] 0.056 | [14] 0.0666 | [3] 0.208 | [4] 0.145 | [7] 0.0214 | [8] 0.0602 | [15] -0.00445 | [16] -0.01 | [17] 0.00659 | [18] 0.0692 | [19] -0.0612 | [20] 0.0839

N#C/C(=C\c1cc(Cl)cc(Cl)c1)c1cccnc1
inactive: 0.025 µM, library screen: screen1, EWS-FLI1 expression: high (no doxycycline) 0.0512 | 0.025 µM, library screen: screen1, EWS-FLI1 expression: low (doxycycline-induced shRNA knockdown) 0.0254 | [1] 0.126 | [2] 0.0849 | [3] 0.0839 | [4] 0.0837 | [25] -0.0133 | 25 µM, library screen: screen1, EWS-FLI1 expression: low (doxycycline-induced shRNA knockdown) 0.21

COc1cc(CC(=O)O)ccc1O
inactive: [5] 0.135 | [6] 0.0721 | [7] 0.111 | [8] 0.122

COc1c(OC)c2occc2c2oc(=O)ccc12
inactive: [1] 0.1 | [2] -0.00542 | [3] 0.166 | [4] 0.0421

CN1CCC[C@H]1c1cccnc1
inactive: [5] 0.141 | [6] 0.0551 | [7] 0.217 | [8] 0.147

CCCC(C(=O)OCCN(CC)CC)(c1ccccc1)c1ccccc1
inactive: [1] 0.0754 | [2] 0.00226 | [5] 0.129 | [6] 0.118 | [3] 0.0741 | [4] 0.137 | [7] 0.103 | [8] 0.0562

CN(C)c1ccc(/C=C2\C(=O)Nc3ccccc32)cc1
active: [5] -1.84 | [6] -0.565 | [3] -0.163 | [7] -2.61 | [8] -0.918 | [25] -0.158

CC(=O)OC(C)C[N+](C)(C)C (centres undefined)
inactive: [1] 0.0221 | [2] 0.019 | [5] 0.251 | [6] 0.192 | [3] 0.142 | [4] 0.0296 | [7] 0.148 | [8] 0.163

CCCCOc1ccc(CC(=O)NO)cc1
inactive: [1] 0.0397 | [2] 0.0519 | [3] 0.124 | [4] 0.116

C=CCc1ccccc1OCC(O)CNC(C)C (centres undefined)
active: [5] -0.203
inactive: [1] 0.0845 | [2] 0.135 | [6] 0.0871 | [3] 0.0928 | [4] 0.0547 | [7] 0.0869 | [8] 0.156

COc1ccc2c(c1)[C@@]1(C)CCC(=O)C[C@@H]1CC2
inactive: [1] 0.0574 | [2] 0.0238 | [3] 0.0895 | [4] 0.0859

Oc1c(Cl)cc(Cl)cc1Sc1cc(Cl)cc(Cl)c1O
inactive: [1] 0.0619 | [2] 0.103 | [3] 0.13 | [4] 0.141

Cc1ccc(O)c([C@H](CCN(C(C)C)C(C)C)c2ccccc2)c1
inactive: [9] 0.0223 | [10] 0.0884 | [1] 0.0284 | [2] 0.0425 | [11] -0.00678 | [12] 0.00909 | [13] -0.00772 | [14] 0.0528 | [3] 0.0568 | [4] 0.0269 | [15] 0.064 | [16] 0.0412 | [17] 0.0719 | [18] 0.0334 | [19] 0.0789 | [20] 0.0505

CCCCC[C@H](CC(=O)NO)C(=O)N[C@H](C(=O)N1CCC[C@H]1CO)C(C)C
inactive: [1] 0.083 | [2] 0.00168 | [5] 0.112 | [6] 0.105 | [3] 0.139 | [4] 0.0527 | [7] 0.0931 | [8] 0.109

CCCCCCCCCC(=O)N[C@@H](Cc1c[nH]c2ccccc12)C(=O)N[C@@H](CC(N)=O)C(=O)N[C@@H](CC(=O)O)C(=O)NC1C(=O)NCC(=O)N[C@@H](CCCN)C(=O)N[C@@H](CC(=O)O)C(=O)N[C@H](C)C(=O)N[C@@H](CC(=O)O)C(=O)NCC(=O)N[C@H](CO)C(=O)N[C@@H](C(C)CC(=O)O)C(=O)N[C@@H](CC(=O)c2ccccc2N)C(=O)OC1C (some centres undefined)
inactive: [9] -0.000338 | [10] -0.000608 | [11] 0.0186 | [12] 0.0343 | [13] 0.103 | [14] 0.0444 | [15] 0.0611 | [16] 0.0124 | [17] 0.0568 | [18] 0.116 | [19] -0.0118 | [20] -0.0633

CC(C)(O)CC[C@@H](O)[C@@](C)(O)[C@H]1CC[C@@]2(O)C3=CC(=O)[C@@H]4C[C@@H](O)[C@@H](O)C[C@]4(C)[C@H]3CC[C@]12C
inactive: [1] 0.0407 | [2] 0.101 | [3] 0.0783 | [4] 0.0234

O=C(O)c1cccc(Nc2ccnc(Nc3cccc(C(=O)O)c3)n2)c1
inactive: [1] 0.0739 | [2] 0.0898 | [3] 0.0811 | [4] -0.00917

Cc1c(CC(C)(C)C(=O)O)n(Cc2ccc(Cl)cc2)c2ccc(F)cc12
inactive: [5] 0.164 | [6] 0.182 | [7] 0.109 | [8] 0.0488

O=C(O)c1cc(=O)c2c(OCC(O)COc3cccc4oc(C(=O)O)cc(=O)c34)cccc2o1
inactive: [1] 0.121 | [2] 0.152 | [3] 0.0934 | [4] 0.042

COC1=C(OC)C(=O)c2ccccc2C1=O
inactive: [5] 0.153 | [6] 0.0608 | [7] 0.12 | [8] 0.0758

COc1cc(O)c2c(=O)c(-c3ccc(O)cc3)coc2c1
inactive: [1] -0.0342 | [2] 0.0164 | [3] 0.131 | [4] 0.0327
